From ChEMBL document CHEMBL4888484, “Replenishing the malaria drug discovery pipeline: Screening and hit evaluation of the MMV Hit Generation Library 1 (HGL1) against asexual blood stage Plasmodium falciparum ,using a nano luciferase reporter read-out” (2022)
The campaign covered roughly 150,000 compounds. About 540 (0.36%) showed an effect of 50% or more. The list shows a part of the results.

The compounds below were run on Plasmodium falciparum (assay: Primary screen in NF54 nanoGlo assay, in single point, at 2uM, 72h; a lower Z score goes with more inhibition). Details: timepoint 72 hour.
Type: functional, Erythrocyte

Row | SMILES | % Inhibition [%] | Z score
1 | Nc1cc(Cl)c(OC(F)F)c(Cl)c1 | -10 | 0.89
2 | O=C(NC(c1ccccn1)[C@H]1C[C@@H](O)C1)c1coc2ccccc12 (some centres not stated) | -3 | 0.63
3 | CC(C)N(Cc1cccc(Cl)c1)C(=O)CNC(=O)Cn1cncn1 | -6 | 0.52
4 | Nc1ncnc2c1[C@@H](c1ccc(Cl)cc1)c1c(ccc3ccccc13)O2 | -5 | 0.65
5 | CC(C)(C)n1nc(CC(N)=O)nc1-c1cccc(N2CCNC2=O)c1 | 8 | -1.24
6 | NC(=O)CCC1S(=O)(=O)CC(c2ccccc2)CS1(=O)=O (configuration not stated) | -17 | 2.33
7 | Cc1ccc(CCC(=O)N2C[C@@H](CN3CCN(C)CC3)[C@@H](CO)C2)cc1C | -4 | 0.73
8 | O=C(NCc1[nH]nc2c1CCCC2)[C@H]1CCC(F)(F)C1 | -5 | 0.57
9 | CN(Cc1cc(C[C@@H]2C[C@H](NS(C)(=O)=O)C2(C)C)no1)c1ccccc1 | 29 | -3.29
10 | Cc1cc(NC(=O)N2CC[C@H](Oc3ccccc3Cl)C2)no1 | -9 | 1.45
11 | O=C(NCCOCC(F)(F)F)[C@@H]1C[C@@H]1c1nc2cccnc2[nH]1 | -8 | 1.57
12 | COC(=O)[C@@H](c1cc(F)c(F)c(F)c1)N(C)CCN1CCCC1=O | 1 | -0.15
13 | Cc1cc(O[C@H]2CCN(C(=O)c3ccc(S(=O)(=O)N4CCOCC4)cc3)C2)nc(C)n1 | 13 | -2
14 | CCCc1cc(C(=O)N2CC[C@@H]3OCc4cccc(c4)Oc4cccc(c4)CC(=O)N(CC)CC(=O)N[C@H]3C2)[nH]n1 | -17 | 3.18
15 | Cc1ccc(Cc2ccccc2C(=O)N2CCC3(CC2)[C@H](O)C[C@@H]3O)cc1F | 2 | -0.36
16 | O[C@@H]1C[C@H](O)C12CCN(c1nccc(C(F)(F)F)n1)CC2 | -7 | 1.47
17 | Cc1ccc(-n2nc3c([n+]2[O-])CCc2c-3no[n+]2[O-])cc1 | -2 | 0.3
18 | CN(C)S(=O)(=O)c1ccc(C(=O)NCc2nc(-c3cnn(C)c3)no2)cc1 | -19 | 2.39
19 | CCc1cc(C(=O)Nc2nc3c(s2)CS(=O)(=O)CC3)n(C)n1 | 9 | -1.68
20 | COC(=O)CC(C)(C)CC(=O)Nc1cccc(-c2ncn(C)n2)c1 | -13 | 1.79
21 | O=C(c1cnn(CCN2CCCCC2)c1)N1CC2CCC1C2 (configuration not stated) | 1 | -0.14

Row | SMILES | % Inhibition [%] | Z score
22 | Cc1ccc(CC2CN(C(=O)NCCc3cccc(C(F)(F)F)n3)C2)cc1 | 19 | -2.36
23 | COc1ccc([C@@H]2CCCN2C(=O)Cn2ccccc2=O)cc1OC | -2 | 0.15
24 | Cn1cc(S(=O)(=O)N2CCc3sc(Cl)cc3C2)cn1 | -10 | 1.17
25 | Cc1nnc(-c2ccccc2NC(=O)c2ccc3ccccc3n2)o1 | -8 | 1.03
26 | Cc1cnc(NC[C@H]2CCCN(Cc3ccco3)C2)nc1 | -12 | 2.17
27 | COc1ccc2ncn(C[C@H]3CN(C)CCN3C)c(=O)c2c1 | -14 | 2.54
28 | CCC(C)C(NC(=O)OC(C)(C)C)c1nnc(S(=O)(=O)Cc2ccccc2F)o1 (configuration not stated) | -10 | 0.86
29 | CCCOC(=O)NC[C@@H]1C[C@H](F)CN1C(=O)CCn1cc(Cl)cn1 | -20 | 2.62
30 | O=C1N[C@@H](c2ccc(-n3ccnc3)cc2)Nc2ccccc21 | 13 | -1.55
31 | CC(C)(CNC(=O)N[C@@H]1CCOc2c(F)cccc21)C1=CCOCC1 | -1 | 0.09
32 | Cc1nnc(N2CCC3(CC2)[C@H](O)C[C@@H]3OCCO)s1 | 7 | -1.36
33 | CN(Cc1ccco1)C(=O)c1cnn(-c2ccccc2)c1 | 0 | 0.02
34 | CC(C)Cn1cnnc1[C@@H]1CCCN1Cc1cc(=O)n(C)c(=O)n1C | 25 | -3.28
35 | O=C(Nc1nc(C2CC2)cs1)C1CCN(c2nccs2)CC1 | -8 | 0.97
36 | Cc1ccc(S(=O)(=O)NC[C@H]2OC[C@@H](NC3CCC(F)(F)CC3)[C@@H]2O)cc1 | -6 | 0.99
37 | CC(CN1C(C(=O)O)CC2CCCCC21)c1cccc(Cl)c1 (configuration not stated) | 4 | -0.51
38 | Cc1ccc2oc(C(=O)N3COCC[C@H]3c3ccccc3)cc2n1 | 13 | -1.28
39 | CCOC(=O)Cc1csc(NC(=O)CN2CCOCC2)n1 | 13 | -1.85
40 | CC(C)(NC(=O)CCc1cn[nH]c1)c1nc2ccccc2s1 | -11 | 1.8
41 | Cc1nc(CNC(=O)[C@@H]2CC[C@H](NS(=O)(=O)c3ccccc3C)C2)cs1 | -10 | 2.05
42 | CN[C@@H](C(=O)N1CCOC(C)(C)C1)c1cnn(C)c1 | -2 | 0.31

Row | SMILES | % Inhibition [%] | Z score
43 | O=C(NCCn1ccc(C(F)(F)F)n1)C1CCC1 | -9 | 1.73
44 | O=C(Cn1cc(-c2ccc(F)cc2)cn1)NCc1ccc(-c2ccoc2)nc1 | 13 | -1.74
45 | Cc1n[nH]c(C)c1CCN(C)C[C@]1(c2ccccc2)CCOC1 | -1 | 0.2
46 | Cc1cccc(CC(=O)Nc2cnn(-c3cccc(C(=O)N[C@@H](C)Cc4ccsc4)c3)c2)c1 | 19 | -2.37
47 | N#CCCN(C(=O)c1ccc2c(c1)CCCC2)C1CCOCC1 | -9 | 1.26
48 | CC(=O)c1cc(C(=O)N2CCCCC[C@H]2c2noc(C(C)C)n2)n(C)c1 | -4 | 0.54
49 | Cc1nc(C)c(S(=O)(=O)N[C@@H](C)c2ccc(Cl)cn2)s1 | -5 | 0.88
50 | Cc1noc(C)c1CC(=O)N[C@H]1CC[C@H](Oc2nccnc2C#N)CC1 | -16 | 1.8
51 | CC(C)c1ccc([C@@H]2CC(=O)c3c(nc4c(cnn4-c4cccc(F)c4)c3N)C2)cc1 | -2 | 0.25
52 | O=C(c1ccc(-c2ccccc2)cc1)N1C[C@@H](CN2CCCCC2)[C@@H](CO)C1 | 4 | -0.59
53 | COc1ccc(-c2nc(C)c(C(=O)N3CCC[C@H]3c3nnc4ccccn34)s2)cc1 | 1 | -0.16
54 | Cc1ccc(NC(=O)NC(=O)Cn2ccc(=O)c3sccc32)cc1C | 34 | -4.37
55 | Cc1nc(C)c(C(=O)Nc2ccc(N3CCCC3)c3ncccc23)o1 | 1 | -0.11
56 | CCOC(=O)C1CCN(C(=O)CN2C(=O)COc3ccc(S(=O)(=O)N4CCOCC4)cc32)CC1 | 1 | -0.19
57 | C[C@@H]1COCCN1Cc1cn(Cc2cnc3ccccc3c2)nn1 | 5 | -0.94
58 | COc1cccc(OC)c1-c1nc(-c2ccc3nncn3c2)no1 | -12 | 2.06
59 | FC(F)(F)Oc1cccc(CN2CCC(c3nnc[nH]3)CC2)c1 | -10 | 1.26
60 | O=C(c1ccncc1F)N1CC(Cn2cncn2)C1 | -1 | 0.19
61 | CCCc1ccc(CN2CC[C@H](Nc3ncccn3)[C@@H](O)C2)o1 | 0 | -0.03
62 | CCn1ccc(C(=O)N2CCC(n3c(C)cnc3C3CCOCC3)CC2)n1 | -9 | 1.2
63 | O=S1(=O)CC[C@H](c2csc(-c3n[nH]c4ccccc34)n2)C1 | -11 | 1.67

Row | SMILES | % Inhibition [%] | Z score
64 | Cc1cc(Cl)cc(N)c1Br | 25 | -3.31
65 | Cc1c(NC(=O)c2cc(C3CC3)on2)c(=O)n(-c2ccccc2)n1C | 7 | -0.78
66 | CO[C@@]12CC[C@H](OCCO)C[C@@H]1N(C(=O)c1ccc(N(C)C)cc1)CC2 | -2 | 0.28
67 | CC[C@H](Nc1cccc(CC(=O)OC)c1)C(N)=O | -4 | 0.7
68 | CN(Cc1cc(C2CC2)on1)C(=O)Cc1c[nH]c(=O)n(C)c1=O | -1 | 0.13
69 | CCn1cc(N[C@H]2CCN(c3ccc(F)c(Cl)c3)C2=O)cn1 | 1 | -0.18
70 | O=C(C[C@@H]1C=CCCC1)N1CCCC2(CC2)C1 | 3 | -0.56
71 | Cc1cnc(C(=O)NC2C[C@H]3CC[C@@H](C2)N3C(=O)Cc2ccc(F)cc2)cn1 (some centres not stated) | -5 | 0.87
72 | O=C(CC[C@@H]1CNC(=O)[C@@H]2C[C@H](NC(=O)Nc3ccsc3)CN12)NCc1cccs1 | 3 | -0.42
73 | COc1ccccc1CCN1C(=O)CC[C@@H]2CN(C(=O)Cc3ccsc3)CC[C@@H]21 | -16 | 2.37
74 | CC(C)C[C@H](NC(=O)CCc1ccc2c(c1)CCO2)c1nnc2ccccn12 | 4 | -0.68
75 | CCC(CC)(CNC(=O)N1C[C@@H](CNC(C)=O)[C@H](c2cncn2C)C1)OC | 2 | -0.28
76 | C=C(C)C[C@H](C)C(=O)N1CCC(CC(=O)O)CC1 | -16 | 1.99
77 | CC1(C)COc2ccc(C(=O)N3CC[C@@H](O)C3)cc21 | -3 | 0.56
78 | O=C1C[C@@H]2CCN(Cc3ccccc3Cl)C[C@@H]2CCOc2ccccc2N1 | 4 | -0.69
79 | Cc1c[nH]c(CN(C)C(=O)C[C@@H](c2cccc(O)c2)c2cccc(Cl)c2)n1 | -17 | 1.53
80 | CC(C)(C)c1ccc(C(C)(C)CNC(=N)N)cc1 | 4 | -0.7
81 | CC1(C)C[C@@H](O)CCN(c2nc3ccccc3o2)C1 | -30 | 2.66
